Test results from US20240076403A1 (SIMCERE ZAIMING PHARMACEUTICAL, published 2024).
Blank lines part the entries; values can stand above or below the binder they belong to.

Experiments:
[1] = target: T1, human HER2-His protein (Acro, Cat. No. HE2-H5225) (human, UniProt P04626 in part); assay: ELISA, 10 nM
T1 construct: also called human HER2 protein; recombinant human HER2-His

[2] = target: T1, human HER2-His protein (Acro, Cat. No. …); assay: ELISA, 0.1 nM
[3] = target: T1, human HER2-His protein (Acro, Cat. No. …); assay: ELISA, 0.001 nM
[4] = target: T1, human HER2-His protein (Acro, Cat. No. …); assay: ELISA, 1 nM
[5] = target: T1, human HER2-His protein (Acro, Cat. No. …); assay: ELISA, 100 nM
[6] = target: T1, human HER2-His protein (Acro, Cat. No. …); assay: ELISA, 0.0001 nM
[7] = target: T2, human HER2 protein on cells (SK-BR-3 endogenous; CHO-K1-human HER2 recombinant) (human, UniProt P04626); assay: FACS on SK-BR-3 cells
T2 construct: also called human HER2-CHO-K1 cells

[8] = target: T2, human HER2 protein on cells (SK-BR-3 …); assay: FACS on CHO-K1-human HER2 cells
[9] = target: T1, human HER2-His protein (Acro, Cat. No. …); assay: ELISA, 0.01 nM
[10] = target: T3, recombinant human HER2-His protein (human, UniProt P04626 in part, limits assumed); assay: SPR, antibody captured on Protein A chip, human HER2-His analyte, 1:1 model
T3 construct: also called human HER2 protein; not shown: His tag

[11] = target: T4, monkey HER2-His protein (monkey); assay: ELISA, coated monkey HER2-His
T4 construct: Bought protein; also called monkey HER2 protein

[12] = target: T5, murine HER2-His protein (murine, UniProt P70424 23-653); assay: ELISA, coated murine HER2-His
T5 construct: Bought protein; also called murine HER2 protein; not shown: His tag
T5 sequence (P70424 23-653): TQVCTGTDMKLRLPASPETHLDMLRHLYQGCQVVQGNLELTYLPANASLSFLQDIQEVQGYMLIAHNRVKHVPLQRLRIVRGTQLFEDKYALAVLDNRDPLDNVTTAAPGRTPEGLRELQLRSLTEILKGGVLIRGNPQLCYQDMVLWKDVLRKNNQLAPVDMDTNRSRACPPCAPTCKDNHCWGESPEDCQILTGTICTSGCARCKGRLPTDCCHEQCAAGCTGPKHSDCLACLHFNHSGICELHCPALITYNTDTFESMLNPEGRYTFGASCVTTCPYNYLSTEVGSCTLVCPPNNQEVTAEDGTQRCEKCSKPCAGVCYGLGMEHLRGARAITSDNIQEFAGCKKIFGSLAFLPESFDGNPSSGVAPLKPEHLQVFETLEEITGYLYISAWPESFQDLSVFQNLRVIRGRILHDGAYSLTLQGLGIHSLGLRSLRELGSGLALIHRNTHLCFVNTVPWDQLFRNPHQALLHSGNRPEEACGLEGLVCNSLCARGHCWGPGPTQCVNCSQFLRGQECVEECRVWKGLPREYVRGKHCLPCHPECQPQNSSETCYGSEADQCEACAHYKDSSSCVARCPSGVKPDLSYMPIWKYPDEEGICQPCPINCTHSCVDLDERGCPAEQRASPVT

[13] = target: T6, monkey HER2 on HEK293T-monkey-HER2 cells (monkey); assay: FACS on HEK293T-monkey-HER2 cells
T6 construct: whole, on cells

[14] = target: T4, monkey HER2-His protein; assay: SPR, antibody captured on Protein A chip, monkey HER2-His analyte, 1:1 model

B1: NB146-28 VHH-hFc (Fc fusion)
chain: EVQLVESGGTRVQPGGSLKLSCATSGIMFSYNTMAWYRQAPGKQRELVATITRDGSTNYADSMKGRFTISRDNAKNTLYLQMNGLKPEDTAVYYCNLGTTDWRRYNYWGQGTQVTVSS[human IgG1 Fc with changes not written out]
OD450 [1]: 2.3 | OD450 [2]: 0.65 | OD450 [3]: 0.05 | OD450 [4]: 2.03 | OD450 [5]: 2.56 | OD450 [6]: 0.05 | EC50 [7]: 1.54 nM | Max MFI [7]: 6940 | EC50 [8]: 0.46 nM | Max MFI [8]: 1120 | OD450 [9]: 0.1

B2: NB147-102 VHH-hFc (Fc fusion)
chain: QLQLVESGGGLVQPGGSLRLSCSASGRTFNNYVMAWFRQAAGKEREFVANINTSGGRTTYTDSVKDRFTISRDNAKNTMYIQMNNLKAEDTAVYYCAARILYNSDNSDYRKYYYWGQGTQVTVSS[human IgG1 Fc with changes not written out]
OD450 [1]: 3 | OD450 [2]: 1.17 | OD450 [3]: 0.06 | OD450 [4]: 2.73 | OD450 [5]: 3.03 | OD450 [6]: 0.05 | EC50 [7]: 1.81 nM | Max MFI [7]: 7490 | EC50 [8]: 0.92 nM | Max MFI [8]: 1580 | OD450 [9]: 0.2

B3: NB147-102 VHH-hFc (Fc fusion)
chain: QLQLVESGGGLVQPGGSLRLSCSASGRTFNNYVMAWFRQAAGKEREFVANINTSGGRTTYTDSVKDRFTISRDNAKNTMYIQMNNLKAEDTAVYYCAARILYNSDNSDYRKYYYWGQGTQVTVSS[human IgG1 Fc with changes not written out]
notes: the junction is not described
Kd [10]: 16.2 nM | koff [10]: 0.00361 s⁻¹ | kon [10]: 223000 M⁻¹ s⁻¹ | OD450 nm at 0.0001 nM antibody [11]: 0.06 OD450 nm | OD450 nm at 0.001 nM antibody [11]: 0.07 OD450 nm | OD450 nm at 0.01 nM antibody [11]: 0.18 OD450 nm | OD450 nm at 0.1 nM antibody [11]: 1.13 OD450 nm | OD450 nm at 1 nM antibody [11]: 2.83 OD450 nm | OD450 nm at 10 nM antibody [11]: 2.66 OD450 nm | OD450 nm at 100 nM antibody [11]: 3.01 OD450 nm | OD450 nm at 0.0001 nM antibody [12]: 0.05 OD450 nm | OD450 nm at 0.001 nM antibody [12]: 0.06 OD450 nm | OD450 nm at 0.01 nM antibody [12]: 0.05 OD450 nm | OD450 nm at 0.1 nM antibody [12]: 0.06 OD450 nm | OD450 nm at 1 nM antibody [12]: 0.05 OD450 nm | OD450 nm at 10 nM antibody [12]: 0.07 OD450 nm | OD450 nm at 100 nM antibody [12]: 0.15 OD450 nm | EC50 [13]: 1.2 nM | Max MFI [13]: 21400 MFI | Kd [14]: 55.4 nM | koff [14]: 0.0192 s⁻¹ | kon [14]: 346000 M⁻¹ s⁻¹

B8: NB147-110 VHH-hFc (Fc fusion)
chain: EVQVVESGGGLVQPGGSLRLSCTASGHTLDYYAIGWFRQAPGKEREGVSCITSTGTITNYADSVKGRFTISRDNAKNTVYLQMNSLKPEDTAVYYCAVLRGSYCRSNTFDAWGQGTLVTVSS[human IgG1 Fc with changes not written out]
OD450 [1]: 2.9 | OD450 [2]: 0.79 | OD450 [3]: 0.06 | OD450 [4]: 2.83 | OD450 [5]: 3.05 | OD450 [6]: 0.05 | EC50 [7]: 2.7 nM | Max MFI [7]: 7790 | EC50 [8]: 1.04 nM | Max MFI [8]: 1360 | OD450 [9]: 0.14

B9: NB147-14 VHH-hFc (Fc fusion)
chain: QVQLVESGGGLVRPGGSLRLSCVLSGRTFSDYAMRWFRQAPGKEREFVASINWSGTHTDYADSVKGRFTISRDNAKKTVYLQMHSLTPTDTAVYYCTFGWGPQLPGTDYWGQGTQVTVAP[human IgG1 Fc with changes not written out]
OD450 [1]: 3.34 | OD450 [2]: 1.05 | OD450 [3]: 0.06 | OD450 [4]: 3 | OD450 [5]: 3.4 | OD450 [6]: 0.06 | EC50 [7]: 2.25 nM | Max MFI [7]: 7290 | EC50 [8]: 0.59 nM | Max MFI [8]: 1300 | OD450 [9]: 0.14

B10: NB147-137 VHH-hFc (Fc fusion)
chain: EVQVVESGGGLVQPGGSLRLSCAASGFTLDYHAIGWFRQAPGKEREGVSCISSSGGRTNYADSVKGRFTISRDNAKNTVYLQMNSLKPEDTAVYYCAAEIFDSAWYCPLSRYDMDYWGKGTLVTVSS[human IgG1 Fc with changes not written out]
OD450 [1]: 2.91 | OD450 [2]: 1.06 | OD450 [3]: 0.08 | OD450 [4]: 2.7 | OD450 [5]: 3.14 | OD450 [6]: 0.05 | EC50 [7]: 4.75 nM | Max MFI [7]: 4920 | EC50 [8]: 1.13 nM | Max MFI [8]: 1060 | OD450 [9]: 0.17

B11: NB146-54 VHH-hFc (Fc fusion)
chain: QLQLVESGGGLVQAGGSLRLSCVASGTFFSTKTMAWYRQAPGNQREWIATISPDGTTRHADSMKGRSTISRDNAKKVVYLQLDSLKPEDTAAYYCRDISRDLWGQGTQVTVSS[human IgG1 Fc with changes not written out]
OD450 [1]: 1.87 | OD450 [2]: 0.45 | OD450 [3]: 0.05 | OD450 [4]: 1.82 | OD450 [5]: 1.97 | OD450 [6]: 0.05 | EC50 [7]: 2.17 nM | Max MFI [7]: 8260 | EC50 [8]: 0.9 nM | Max MFI [8]: 1550 | OD450 [9]: 0.09

B12: NB147-83 VHH-hFc (Fc fusion)
chain: QLQLVESGGGLVQPGGSLTLSCAASGFPASHYYAIRWFRQAPGKERDGIACISSYDGSTNYADSVKGRFTISNDGAKKTVYLHMSDVQPEDAAVYFCAATIHFSAYEECQAYEYHYWGQGTQVTVSS[human IgG1 Fc with changes not written out]
OD450 [1]: 3.33 | OD450 [2]: 0.48 | OD450 [3]: 0.06 | OD450 [4]: 2.61 | OD450 [5]: 3.43 | OD450 [6]: 0.07 | EC50 [7]: 12.1 nM | Max MFI [7]: 6780 | EC50 [8]: 5.57 nM | Max MFI [8]: 1140 | OD450 [9]: 0.1

Results, then the binder that gave them:

OD450 [1]: 2.73 | OD450 [2]: 0.74 | OD450 [3]: 0.06 | OD450 [4]: 2.34 | OD450 [5]: 2.95 | OD450 [6]: 0.05 | EC50 [7]: 5.5 nM | Max MFI [7]: 4410 | EC50 [8]: 3.11 nM | Max MFI [8]: 638 | OD450 [9]: 0.12
B4: NB147-161 VHH-hFc (Fc fusion)
chain: QLQLVESGGGWVQAGGSLRLSCAASGFTLDYYAIGWFRQAPGKEREGVSCISSSGGRSNYADSVKGRFTISRDNAKNTVYLQMNSLKIEDTGVYYCAAVILDDSWQCGYYYNMDYWGKGTLVTVSS[human IgG1 Fc with changes not written out]

OD450 [1]: 2.56 | OD450 [2]: 0.58 | OD450 [3]: 0.11 | OD450 [4]: 2.17 | OD450 [5]: 3.14 | OD450 [6]: 0.06 | EC50 [7]: 1.97 nM | Max MFI [7]: 7290 | EC50 [8]: 0.8 nM | Max MFI [8]: 1480 | OD450 [9]: 0.11
B5: NB146-125 VHH-hFc (Fc fusion)
chain: EVQLVESGGGLVQAGGSLTLSCVASETIFRRNAMAWYRQAPGQQRELVASIRRGAFTYYPNSMKGRFTISRDDAKNTVFLQMNSLKPEDTGVYYCRSLNDDYWGQGTQVTVSS[human IgG1 Fc with changes not written out]

OD450 [1]: 2.27 | OD450 [2]: 0.59 | OD450 [3]: 0.05 | OD450 [4]: 1.95 | OD450 [5]: 2.85 | OD450 [6]: 0.05 | EC50 [7]: 4.12 nM | Max MFI [7]: 6310 | EC50 [8]: 3.81 nM | Max MFI [8]: 1130 | OD450 [9]: 0.11
B6: NB146-27 VHH-hFc (Fc fusion)
chain: EVQLVESGGGLAQPGGSLRLSCAASGFRFTSYWMHWVRQAPGKGLEWVSAINTGGGSTYYADSVKGRFTISRDNAKNTLYLQMNSLKPEDTALYYCARDLSGSDYVVGITSWGQGTQVTVSS[human IgG1 Fc with changes not written out]

OD450 [1]: 2.92 | OD450 [2]: 1.18 | OD450 [3]: 0.07 | OD450 [4]: 2.71 | OD450 [5]: 2.91 | OD450 [6]: 0.05 | EC50 [7]: 5.35 nM | Max MFI [7]: 4950 | EC50 [8]: 2.36 nM | Max MFI [8]: 1020 | OD450 [9]: 0.19
B7: NB147-36 VHH-hFc (Fc fusion)
chain: QLQLVESGGGLVQPGGSLRLSCAASGFTLDYHAIGWFRQAPGKEREGVSCISSSGGRINYADSVKGRFTISRDMTKNTVYLELNSLKPEDTAIYYCAAEIFDSSWYCPLSRNNMNYWGKGTLVAVSS[human IgG1 Fc with changes not written out]
